# Data as given in PubChem BioAssay AID686979 (National Center for Advancing Translational Sciences (NCATS), 2013).
# Hit rate of the full screen: of about 420,000 compounds, about 50,000 (12%) were called active. Inconclusive means that the source gave no clear call. Such entries were picked first, then a sample of the others. Calls follow the shape of the dose curve; as a rule, active = well fitted inhibition curve with a large enough effect; inconclusive = small, poorly fitted or top-dose-only effect; inactive = flat fitted curve, though single readings scatter. Potencies of inconclusive entries are left out as doubtful fits.
# Experiment: qHTS for Inhibitors of human tyrosyl-DNA phosphodiesterase 1 (TDP1): qHTS in cells in presence of CPT; also: nearly all actives have a fitted effect of over 55% in size
# Details: chicken DT40 Tdp1-/-;hTDP1 cells + 20 nM CPT, ATP luminescence, 48 h; activity change, negative = growth inhibition: at 46.2 µM (top of the series) unless noted
# Summary of the method: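 Chicken DT40 Tdp1-/- cells stably complemented with human TDP1 were seeded at 400 cells/well in medium containing 20 nM camptothecin, exposed to pin-transferred compounds, and grown at 37 °C for at least 48 hr. Viability was read as ATP luminescence.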
# % is scaled to controls: 0 for no effect and ±100 for the full control effect; potency is read from the fitted curve at half-maximal effect; tags tell the direction and shape of the fitted curve.
Structure (SMILES),Potency,"activity change, negative = growth inhibition"
COc1ccc(NC(=O)CSC2=Nc3ccccc3C3=NC(CCC(=O)NCc4cccs4)C(=O)N23)cc1 (stereo not drawn),"inconclusive [inhibitor, single point]",–
CCc1ccc(N(CC(=O)NC(C)C)C(=O)CCC(=O)Nc2nccs2)cc1,–,inactive: -2.68%
O=S(=O)(c1ccc(N2CCCCCC2)nc1)N1CCCC1,–,inconclusive: -34% [inhibitor]
Cc1ccc(C)c(Cn2c3ccccc3c3cnn(CC(=O)NC4CCC(C)CC4)c(=O)c32)c1 (stereo not drawn),active: 10.3 µM,–
CN1CCN(c2ncc3nc(-c4ccc(F)cc4)c(=O)n(C4CC4)c3n2)CC1,"inconclusive [inhibitor, partial curve]",–
COc1ccc(Cc2noc(CN(C)Cc3ccc(-n4cccn4)cc3)n2)cc1OC,"inconclusive [inhibitor, single point]",–
O=C(Nc1cccc(S(=O)(=O)Nc2ccc(Cl)cc2)c1)c1cc2c(s1)CCCC2,"inconclusive [inhibitor, single point]",–
Cc1noc(C)c1S(=O)(=O)N(C)C[C@H]1Oc2ccc(NC(=O)NC3CCCCC3)cc2C(=O)N([C@H](C)CO)C[C@@H]1C,"inconclusive [inhibitor, single point]",–
CCOC(=O)C1CCN(c2c(NCc3ccc(C(=O)Nc4ccc(C)cc4)cc3)c(=O)c2=O)CC1,–,inactive: -9.4%
CSc1cc(-c2ccc(Cl)cc2)c(C(=O)N2CCCC2)s1,–,inactive: -24.1%
CN(C)CCCNCC(=O)c1c(-c2ccccc2)n(C)c2ccccc12,active: 29.1 µM,–
Cc1cccc(NS(=O)(=O)c2cccc(C(=O)NCc3ccccc3CN3CCOCC3)c2)c1,"inconclusive [inhibitor, single point]",–
COc1cc(/C=N/NC(=O)COc2ccc(C)cc2)ccc1OC(=O)c1cccs1,"inconclusive [inhibitor, single point]",–
Cc1c(C(=O)NCc2ccc(Cl)c(Cl)c2)sc(=O)n1Cc1ccccc1F,"inconclusive [inhibitor, single point]",–
CCOC(=O)c1nc(S(C)(=O)=O)ncc1Cl,active: 4.11 µM,–
CCCCOC(=O)/C(C#N)=C/c1ccc(-c2cccc(C(F)(F)F)c2)o1,"inconclusive [inhibitor, single point]",–
CC1=C(C(=O)NCc2cccc(Br)c2)C2(CCCCC2)OC1=O,active: 14.6 µM,–
COC(=O)[C@@]12C[C@@H](CC(=O)N3CCCCC3)C(=O)N(Cc3cccc4ccccc34)C1=CCC(C)(C)C2,"inconclusive [inhibitor, single point]",–
